Values marked as one replicate rest on one cluster of the flow cell; about a third of the high ones do not repeat.

The test system of this data set is ATP. The experiment in a line: switch fluorescence ratio, 500 uM ATP over buffer (Cy3 cluster intensity, sum of 5 cycles each) (fold (ratio)); higher = stronger signal-on switching upon ATP binding; sequences stand for … in TCGTCGGCAGCGTCAGATGTGTATAAGAGACAGTTTTTTTTTTTTTTTTTTTTTTTTT…TC. To be noted: aptamer strand: ATP DNA aptamer (quencher-CACCTGGGGGAGTATTGCGGAGGAAGG + anchor), 100 nM annealed; ATP concentration: 500 uM; one replicate. The method, boiled down:
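Values give the fluorescence ratio for each switch-domain sequence, averaged from per-cluster ratios of summed target-cycle to summed buffer-cycle Cy3 intensity. The Cy3-labelled switching-strand clusters sat on a modified Illumina MiSeq flow-cell, were annealed to 100 nM quencher-labelled ATP aptamer, and were imaged in selection buffer, then after 15 min with 500 uM ATP at 22 °C. Five cycles ran with NaOH stripping and re-annealing between them, and clusters outside 100-1000 RFU were excluded.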
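Also: ATP exposure 15 min at 22 °C before imaging.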

Regarding CTCCGGTCGA, the switch fluorescence ratio amounted to 1.88.
For GCGTTAGTCG the value was 0.979.
For AGAGCTTAAG the value was 0.975; for GTGGACCCGA, 0.992; for ACGGGAAGCA, 1.05.
For the sequence AGAGCTACTT, the switch fluorescence ratio is 1.
Next, CTAGTAGGTA: 0.971; GATTTGTAAC: 1.02; CCTCTTATAG: 1.96.
For GCGGTAAGCT the value was 1; for CTGGGGTTGA, 1.
In the case of TAGTAGTCGA, the switch fluorescence ratio came to 1.03.
Next, GCCGTAATAG: 4.09; ACTGTTAGC: 1.
Take TCAGCGGGA: the switch fluorescence ratio was 1.02.
For CTTGCTTTCT the value was 1.01; for GGACAAAAGG, 0.956; for GACTTAGAAA, 0.969.
Consider CTAGACAATT, for which the switch fluorescence ratio was 0.986.
Turning to GCGACCAGTC, the switch fluorescence ratio was 1.05.
As to CTAGAGCACA, the switch fluorescence ratio was 2.03.
For GGTGCTCGCA the value was 1.01.
For AGGCCGCTTG the value was 1.04; for ACGGATCCGG, 0.931; for ACAGAAGTTG, 0.993.
On to CCCGCTCTTG, for which the switch fluorescence ratio turned out to be 1.07.
Turning to GGGCCCCAGG, the switch fluorescence ratio is 1.19.
Next, TAAGTAGGTA: 0.956; TCAAGCCGTC: 1.08; GACTAGCGTG: 0.98.
Next, GCCTGACTCA: 1.83; AGGTAACATC: 0.989.
TGTGCGTCA: the switch fluorescence ratio worked out at 0.991.
For TGTAGATGA the value was 1.01; for ATATATACGC, 1.04; for CCGGGAATGC, 3.78.
For GCTTCTTCCG the value was 3.51.
ACAAGGAGT: the switch fluorescence ratio was 0.98.
Next, TCACGTAGTT: 1.03; ACCGGGGGTC: 1.
As to ATAGTTCTGT, the switch fluorescence ratio was 1.02.
Next, TTGATGTTTG: 0.984; CAAATTCGTG: 0.969; TGGTTTGAC: 0.992.
Next, ACCTTAGCGT: 1.11; TGTGGTCGG: 0.993; AGGTTACCC: 1.03.
As for GAAGTAAATA, the switch fluorescence ratio was determined as 1.23.
As for TTCTCCAAAC, the switch fluorescence ratio is 1.05.
For AGGGTGTCTA the value was 1.01; for GCAGTCCTAA, 1.04.
For AAAAGGTCAT the value was 0.999; for ATTGGTCCAT, 1.
For the sequence GAGGCGAGCG, the switch fluorescence ratio was determined as 0.972.
Take AACCTGTGCA: the switch fluorescence ratio amounted to 1.14.
With GCCTACATCA, the switch fluorescence ratio was 1.01.
For GGGAAAGCTC the value was 0.996.
With TGCTACACCA, the switch fluorescence ratio came to 1.01.
For CGGTATACAG the value was 0.979; for TTCCTGACCG, 0.977; for TGATGGAAGC, 1.05.
Next, AGGTGGGCAT: 1.
For TACTAAAAGG the value was 1.01.
On to CGCCGTGAAT, for which the switch fluorescence ratio came to 1.03.
Next, ACCAACCCGC: 2.7; GCATGTAGGC: 1.05.
Next, AAACGCGTT: 0.979.
GAACAAAACG: the switch fluorescence ratio came to 0.991.
For the sequence AACTGGATGC, the switch fluorescence ratio was 0.971.
Turning to GGAGCGTGTC, the switch fluorescence ratio was 0.973.
For CACTTACAGG the value was 1.26; for CCTTGAGGG, 0.996.
For TTGTTGTAGA the value was 0.984; for CTAAGGGATG, 1.01; for CACGGATCCT, 1.01.
For TCGTACAGG the value was 1.01; for TAATCCCCAG, 1.03.
Regarding GAGCTTAGAC, the switch fluorescence ratio was found to be 1.06.
As for GTGTGCAAGC, the switch fluorescence ratio came out at 1.09.
Turning to AGACCCCTAA, the switch fluorescence ratio stood at 1.05.
For AACGTGGTTC the value was 1.04; for GTTCTACAAA, 1.05.
As to TTCTATCGGT, the switch fluorescence ratio amounted to 0.966.
With GGGTATCAGC, the switch fluorescence ratio was 1.
Next, GCCGACTTGC: 1.08; AGAAGTGGTT: 0.988.
Next, CTAGGGTCGA: 1.
As to CGTAGTTGGT, the switch fluorescence ratio came out at 1.01.
Next, CACCTTTGG: 0.992; CCACAGCTAA: 4.73.
Next, ATACCTCGCC: 1.63; TACCAGGTGG: 1.16; ATAGGATAGC: 0.953.
Next, GGGTCGGCGT: 1.05; CACGTAGG: 1.1.
As for CACACAACCC, the switch fluorescence ratio stood at 1.09.
Next, TGGTCAGGTT: 0.964; GTCCTCGGAC: 1.43; CGAGTCATCT: 0.965.
Next, CGGTGAGACA: 1.03.
As to TTAATTCTCC, the switch fluorescence ratio was 0.986.
For the sequence CACGGTTCGT, the switch fluorescence ratio is 1.02.
For GCAGCTTCAG the value was 0.995; for GATAGGTAAC, 0.996.
Regarding CTAAGCCGGG, the switch fluorescence ratio is 1.01.
Next, GGGTTAAGGT: 0.99.
For TCGCGGCATT the value was 1.24; for TGGCATTTGG, 1.03; for AGTTGTAGGC, 0.999.
For GTCGACTACA the value was 0.994; for ACCTTTGGGT, 0.979.
On to AAACCTGCGT, for which the switch fluorescence ratio turned out to be 1.03.
For TTCGAGGCGG the value was 1.05; for TATTGTTGAG, 0.981.
For ATTGACAGCG, the switch fluorescence ratio was found to be 0.938.
For AATGACCACA the value was 1.04; for CCGTAGAGGT, 1.36; for ACGCGGTTTC, 1.08.
For CGTCTTTCAA the value was 1.03; for GCATCGAAAA, 1.02.

The values above are taken from the supplement of paper PMC10126150.
